The record followed here is PubChem BioAssay (NCI).

The subject of this assay is NCI-H322M lung. Nature of the assay: inhibition of tumour cell growth, NCI panel, 48 h.

Each structure is given as a SMILES string.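 A five-concentration, 48-hour dose response in 96-well plates underlies each endpoint, interpolated linearly between surrounding concentrations. At the GI50, growth is halved. The concentration for full growth arrest is given as TGI.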

Turning to `CS(=O)(=O)c1nccc(-c2c(-c3ccc(F)c(OCc4ccc(F)cc4)c3)nc3sccn23)n1`, the GI50 is 14.6 µM and the TGI came to 28 µM.
